Article PMC10166177
No constants are given. Whether binding was seen depends on the method and setting. Binding seen in cells or lysates may run through a third protein. Some entries that bind do so weakly or less than the wild type. Tags and fused reporters may be left off the sequences shown.

Sequences of proteins named here, by UniProt entry; tags and fusion partners are left off.
UniProt Q91VC3: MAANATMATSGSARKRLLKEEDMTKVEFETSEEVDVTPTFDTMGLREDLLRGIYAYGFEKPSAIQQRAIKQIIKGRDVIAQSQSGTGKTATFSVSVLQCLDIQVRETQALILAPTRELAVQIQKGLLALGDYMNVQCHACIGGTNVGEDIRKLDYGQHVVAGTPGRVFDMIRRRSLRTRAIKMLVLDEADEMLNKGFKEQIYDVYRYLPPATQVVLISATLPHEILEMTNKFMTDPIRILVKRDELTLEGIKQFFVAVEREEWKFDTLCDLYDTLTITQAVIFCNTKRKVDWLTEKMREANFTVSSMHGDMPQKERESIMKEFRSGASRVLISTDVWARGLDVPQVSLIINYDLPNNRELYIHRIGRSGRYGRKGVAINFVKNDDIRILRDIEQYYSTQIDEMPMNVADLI
UniProt O35691: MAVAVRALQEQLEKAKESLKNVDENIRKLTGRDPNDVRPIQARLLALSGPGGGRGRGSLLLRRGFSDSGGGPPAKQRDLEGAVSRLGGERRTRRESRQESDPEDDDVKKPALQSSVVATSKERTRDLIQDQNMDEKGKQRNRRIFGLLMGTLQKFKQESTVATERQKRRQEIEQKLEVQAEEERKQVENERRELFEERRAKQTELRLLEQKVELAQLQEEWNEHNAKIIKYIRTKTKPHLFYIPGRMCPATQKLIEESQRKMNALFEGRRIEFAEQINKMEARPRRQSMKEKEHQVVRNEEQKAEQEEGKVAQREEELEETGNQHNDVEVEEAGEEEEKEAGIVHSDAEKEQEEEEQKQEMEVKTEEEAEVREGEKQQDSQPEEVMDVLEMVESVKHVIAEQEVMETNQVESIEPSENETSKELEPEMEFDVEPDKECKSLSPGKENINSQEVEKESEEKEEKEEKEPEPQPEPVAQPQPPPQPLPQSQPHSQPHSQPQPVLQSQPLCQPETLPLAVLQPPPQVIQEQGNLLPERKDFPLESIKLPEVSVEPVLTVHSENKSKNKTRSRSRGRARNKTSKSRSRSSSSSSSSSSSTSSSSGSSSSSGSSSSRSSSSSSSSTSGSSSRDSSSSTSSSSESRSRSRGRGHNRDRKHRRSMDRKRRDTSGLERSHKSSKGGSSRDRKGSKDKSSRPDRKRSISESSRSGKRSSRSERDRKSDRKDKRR

T1: Flag-tagged full-length SNIP1 (Smad Nuclear Interacting Protein 1) (UniProt Q8BIZ6)
T1 sequence: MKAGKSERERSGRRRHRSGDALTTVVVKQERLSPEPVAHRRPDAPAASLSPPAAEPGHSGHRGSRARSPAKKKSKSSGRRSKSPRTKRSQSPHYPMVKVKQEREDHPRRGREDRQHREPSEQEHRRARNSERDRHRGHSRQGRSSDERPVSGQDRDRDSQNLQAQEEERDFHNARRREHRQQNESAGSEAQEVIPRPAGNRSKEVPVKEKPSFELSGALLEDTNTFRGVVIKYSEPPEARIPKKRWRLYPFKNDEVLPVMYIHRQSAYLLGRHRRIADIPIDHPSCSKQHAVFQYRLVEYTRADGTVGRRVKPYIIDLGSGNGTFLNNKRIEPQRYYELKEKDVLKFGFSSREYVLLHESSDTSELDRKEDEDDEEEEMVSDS

T2: tagged SNIP1 (UniProt Q8BIZ6)
T2 sequence: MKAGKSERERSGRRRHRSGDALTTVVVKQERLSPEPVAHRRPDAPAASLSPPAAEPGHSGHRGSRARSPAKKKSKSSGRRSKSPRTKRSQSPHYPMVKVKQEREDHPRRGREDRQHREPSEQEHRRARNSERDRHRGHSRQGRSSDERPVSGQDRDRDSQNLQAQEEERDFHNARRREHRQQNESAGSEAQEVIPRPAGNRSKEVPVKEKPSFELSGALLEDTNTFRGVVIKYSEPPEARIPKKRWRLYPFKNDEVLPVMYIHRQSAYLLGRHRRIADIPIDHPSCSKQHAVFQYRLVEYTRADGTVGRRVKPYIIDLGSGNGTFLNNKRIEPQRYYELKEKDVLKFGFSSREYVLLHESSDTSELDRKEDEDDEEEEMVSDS


What follows are molecules tested against T1, Flag-tagged full-length SNIP1 (Smad Nuclear Interacting Protein 1) (assay: co-IP; N2a cells expressing Flag-tagged full-length or ΔFHA SNIP1 together with RNPS1-Myc).

binding	Molecule
binds	RNPS1-Myc (protein, UniProt Q99M28 1-305) MDLSGVKKKSLLGVKENNKKSSTRAPSPTKRKDRSDEKSKDRSKDKGATKESSEKDRGRDKTRKRRSASSGSSSTRSRSSSTSSSGSSTSTGSSSGSSSSSASSRSGSSSTSRSSSSSSSSGSPSPSRRRHDNRRRSRSKSKPPKRDEKERKRRSPSPKPTKVHIGRLTRNVTKDHIMEIFSTYGKIKMIDMPVERMHPHLSKGYAYVEFENPDEAEKALKHMDGGQIDGQEITATAVLAPWPRPPPRRFSPPRRMLPPPPMWRRSPPRMRRRSRSPRRRSPVRRRSRSPGRRRHRSRSSSNSSR

The molecules below were run against T2, tagged SNIP1 (assay: co-IP; N2a cells expressing tagged SNIP1 and the indicated tagged proteins; bait not given).

binding	Molecule
no binding	eIF4AIII (from UniProt Q91VC3 1-411)
binds	Syf1 (protein, UniProt Q9DCD2 1-855) MVVMARVPRSERPDLVFEEEDLPYEEEIMRNQFSVKCWLRYIEFKQGAPKPRLNQLYERALKLLPCSYKLWYRYLKARRAQVKHRCVTDPAYEDVNNCHERAFVFMHKMPRLWLDYCQFLMDQGRVTHTRRTFDRALRALPITQHSRIWPLYLRFLRSHPLPETAVRGYRRFLKLSPESAEEYIEYLKSSDRLDEAAQRLATVVNDERFVSKAGKSNYQLWHELCDLISQNPDKVQSLNVDAIIRGGLTRFTDQLGKLWCSLADYYIRSGHFEKARDVYEEAIRTVMTVRDFTQVFDSYAQFEESMIAAKMETASELGREEEDDVDLELRLARFEQLISRRPLLLNSVLLRQNPHHVHEWHKRVALHQGRPREIINTYTEAVQTVDPFKATGKPHTLWVAFAKFYEDNGQLDDARVILEKATKVNFKQVDDLASVWCQCGELELRHENYDEALKLLRKATALPARRAEYFDGSEPVQNRVYKSLKVWSMLADLEESLGTFQSTKAVYDRILDLRIATPQIVINYAMFLEEHKYFEESFKAYERGISLFKWPNVSDIWSTYLTKFISRYGGRKLERARDLFEQALDGCPPKYAKTLYLLYAQLEEEWGLARHAMAVYDRATRAVEPAQQYDMFNIYIKRAAEIYGVTHTRGIYQKAIEVLSDEHAREMCLRFADMECKLGEIDRARAIYSFCSQICDPRTTGAFWQTWKDFEVRHGNEDTIREMLRIRRSVQATYNTQVNFMASQMLKVSGSATGTVSDLAPGQSGMDDMKLLEQRAEQLAAEAERDQPPRAQSKIFFVRSDASREELAELAQQANPEEIQLGEDEDEDEMDLEPNEVRLEQQSVPAAVFGSLKED
no binding	YJU2 (protein, UniProt Q9D6J3 1-314) MSERKVLNKYYPPDFDPSKIPKLKLPKDRQYVVRLMAPFNMRCKTCGEYIYKGKKFNARKETVQNEAYLGLPIFRFYIKCTRCLAEITFKTDPENTDYTMEHGATRNFQAEKLLEEEEKRVQKEREDEELNNPMKVLENRTKDSKLEMEVLENLQELKDLNQRQAHVDFEAMLRQHRMSQEQWQQQQEEEDERETAALLEEARHRRLLEDSESEDEAPPSRPRAAARPNPTAILNEVPQTKRKAEALCSKAQLAGLVVPKKVKTEANGASEQVGVPTAAGAPKSRKADNPTPQTPGTSSLSQLGAYGDSEDSDS
binds	SF3a66 (protein, UniProt Q62203 1-475) MDFQHRPGGKTGSGGVASSSESNRDRRERLRQLALETIDINKDPYFMKNHLGSYECKLCLTLHNNEGSYLAHTQGKKHQTNLARRAAKEAKEAPAQPAPEQVKVEVKKFVKIGRPGYKVTKQRDTEMGQQSLLFQIDYPEIAEGIMPRHRFMSAYEQRIEPPDRRWQYLLMAAEPYETIAFKVPSREIDKAEGKFFFLQFHFKMEKPPAPPSLPAGPPGVKRPPPPLMNGLPPRPPLPDALPPPPPGGLPLPPMPPTGPAPSGPPGPPQMPPPAPGVHPPAPVVHPPTSGVHPPAPGVHPPAPVVHPPTSGVHPPAPGVHPPTPGVHPPAPGVHPPAPGVHPPAPGVHPPTPGVHPPAPGVHPPAPGVHPPAPGVHPPPSAGVHPQAPGVHPPAPAVHPQAPGVHPPAPGIHPQAPGVHPQPPPGVHPAAPGVHPQPPGVHPSNPGVHPAPMPPMLRPPLPSDGPGNMPPPPPGN
binds	SF3b130 (protein, UniProt Q921M3 1-1217) MFLYNLTLQRATGISFAIHGNFSGTKQQEIVVSRGKILELLRPDPNTGKVHTLLTVEVFGVIRSLMAFRLTGGTKDYIVVGSDSGRIVILEYQPSKNMFEKIHQETFGKSGCRRIVPGQFLAVDPKGRAVMISAIEKQKLVYILNRDAAARLTISSPLEAHKANTLVYHVVGVDVGFENPMFACLEMDYEEADNDPTGEAAANTQQTLTFYELDLGLNHVVRKYSEPLEEHGNFLITVPGGSDGPSGVLICSENYITYKNFGDQPDIRCPIPRRRNDLDDPERGMIFVCSATHKTKSMFFFLAQTEQGDIFKITLETDEDMVTEIRLKYFDTVPVAAAMCVLKTGFLFVASEFGNHYLYQIAHLGDDDEEPEFSSAMPLEEGDTFFFQPRPLKNLVLVDELDSLSPILFCQIADLANEDTPQLYVACGRGPRSSLRVLRHGLEVSEMAVSELPGNPNAVWTVRRHIEDEFDAYIIVSFVNATLVLSIGETVEEVTDSGFLGTTPTLSCSLLGDDALVQVYPDGIRHIRADKRVNEWKTPGKKTIVKCAVNQRQVVIALTGGELVYFEMDPSGQLNEYTERKEMSADVVCMSLANVPPGEQRSRFLAVGLVDNTVRIISLDPSDCLQPLSMQALPAQPESLCIVEMGGTEKQDELGERGSIGFLYLNIGLQNGVLLRTVLDPVTGDLSDTRTRYLGSRPVKLFRVRMQGQEAVLAMSSRSWLSYSYQSRFHLTPLSYETLEFASGFASEQCPEGIVAISTNTLRILALEKLGAVFNQVAFPLQYTPRKFVIHPESNNLIIIETDHNAYTEATKAQRKQQMAEEMVEAAGEDERELAAEMAAAFLNENLPESIFGAPKAGNGQWASVIRVMNPIQGNTLDLVQLEQNEAAFSVAVCRFSNTGEDWYVLVGVAKDLILSPRSVAGGFVYTYKLVNNGEKLEFLHKTPVEEVPAAIAPFQGRVLIGVGKLLRVYDLGKKKLLRKCENKHIANYISGIQTIGHRVIVSDVQESFIWVRYKRNENQLIIFADDTYPRWVTTASLLDYDTVAGADKFGNICVVRLPPNTNDEVDEDPTGNKALWDRGLLNGASQKAEVIMNYHVGETVLSLQKTTLIPGGSESLVYTTLSGGIGILVPFTSHEDHDFFQHVEMHLRSEHPPLCGRDHLSFRSYYFPVKNVIDGDLCEQFNSMEPNKQKNVSEELDRTPPEVSKKLEDIRTRYAF
no binding	CWC25 (protein, UniProt Q9DBF7 1-416) MGGGDLNLKKSWHPQTLRNVEKVWKAEQKHEAERKKIEELQRELREERAREEMQRYAEDVGAVKKKEEKLDWMYQGPGGMVNRDEYLLGRPIDKYVFEKMEEREAGCSSETGLLPGSIFAPSGANSLLDMASKIREDPLFIIRKKEEEKKREVLNNPVKMKKIKELLQMSLEKKEKKKKKEKKKKHRKHKHRSSSSGGSSSEDEQSQARSQKKMANSFPVLSKVPGYGLQVRDSDRNRGLQGSLGEQRAIKNNSRSRSSSPPRHASKKSTKEERPRDRRSRSPSRRSRSPRPSKPHTSKVNRKERDSPSPKKEAYQRRHASGYTRKLSAEELERKRQEMMENAKWREEERLNTLKRHAREDEREHRLERLDSRSGKFLHRMKLESASTSSLEDRVKRNIHSLQRTSVALEKNFMRR
binds	SF3a120 (protein, UniProt Q8K4Z5 1-791) MQAGPVQAVPPPPPVATESKQPIEEEASSKEDPTPSKPVVGIIYPPPEVRNIVDKTASFVARNGPEFEARIRQNEINNPKFNFLNPNDPYHAYYRHKVSEFKEGKAQEPSAAIPKVMQQQQQATQQQLPQKVQAQVIQETIVPKEPPPEFEFIADPPSISAFDLDVVKLTAQFVARNGRQFLTQLMQKEQRNYQFDFLRPQHSLFNYFTKLVEQYTKILIPPKGLFSKLKKEAENPREVLDQVCYRVEWAKFQERERKKEEEEKEKERVAYAQIDWHDFVVVETVDFQPNEQGNFPPPTTPEELGARILIQERYEKFGESEEVEMEVESDEEDQEKAEETPSQLDQDTQVQDMDEGSDDEEEGQKVPPPPETPMPPPLPPTPDQVIVRKDYDPKASKPLPPAPAPDEYLVSPITGEKIPASKMQEHMRIGLLDPRWLEQRDRSIREKQSDDEVYAPGLDIESSLKQLAERRTDIFGVEETAIGKKIGEEEIQKPEEKVTWDGHSGSMARTQQAAQANITLQEQIEAIHKAKGLVPEDDTKEKIGPSKPNEIPQQPPPPSSATNIPSSAPPITSVPRPPAMPPPVRTTVVSAVPVMPRPPMASVVRLPPGSVIAPMPPIIHAPRINVVPMPPAAPPIMAPRPPPMIVPTAFVPAPPVAPVPAPAPMPPVHPPPPMEDEPPSKKLKTEDSLMPEEEFLRRNKGPVSIKVQVPNMQDKTEWKLNGQGLVFTLPLTDQVSVIKVKIHEATGMPAGKQKLQYEGIFIKDSNSLAYYNMASGAVIHLALKERGGRKK
binds	SF3a60 (protein, UniProt Q9D554 1-501) METILEQQRRYHEEKERLMDVMAKEMLTKKSTLRDQINSDHRTRAMQDRYMEVSGNLRDLYDDKDGLRKEELNAISGPNEFAEFYNRLKQIKEFHRKHPNEICVPMSVEFEELLKARENPSEEAQNLVEFTDEEGYGRYLDLHDCYLKYINLKASEKLDYITYLSIFDQLFDIPKERKNAEYKRYLEMLLEYLQDYTDRVKPLQDQNELFGKIQTDFEKKWDNGTFPGWPKETSSALTHAGAHLDLSAFSSWEELASLGLDRLKSALLALGLKCGGTLEERAQRLFSTKGKSLESLDTSLFAKNPKSKGTKRDTERNKDIAFLEAQIYEYVEILGEQRQLTHENVQRKQARTGEEREEEEEEQISESESEDEENEIIYNPKNLPLGWDGKPIPYWLYKLHGLNINYNCEICGNYTYRGPKAFQRHFAEWRHAHGMRCLGIPNTAHFANVTQIEDAVSLWAKLKLQKASERWQPDTEEEYEDSSGNVVNKKTYEDLKRQGLL

These molecules were tested against T2, tagged SNIP1 (assay: co-IP; N2a cells simultaneously expressing tagged PNN, SNIP1, and RNPS1; bait not given).

binding	Molecule
binds	tagged PNN (from UniProt O35691 1-725)
binds	tagged RNPS1 (protein, UniProt Q99M28 1-305) MDLSGVKKKSLLGVKENNKKSSTRAPSPTKRKDRSDEKSKDRSKDKGATKESSEKDRGRDKTRKRRSASSGSSSTRSRSSSTSSSGSSTSTGSSSGSSSSSASSRSGSSSTSRSSSSSSSSGSPSPSRRRHDNRRRSRSKSKPPKRDEKERKRRSPSPKPTKVHIGRLTRNVTKDHIMEIFSTYGKIKMIDMPVERMHPHLSKGYAYVEFENPDEAEKALKHMDGGQIDGQEITATAVLAPWPRPPPRRFSPPRRMLPPPPMWRRSPPRMRRRSRSPRRRSPVRRRSRSPGRRRHRSRSSSNSSR
